Screen size: about 150,000 compounds; about 540 (0.36%) showed an effect of 50% or more. The list shows a part of the results.

This test concerns Plasmodium falciparum. In words: Primary screen in NF54 nanoGlo assay, in single point, at 2uM, 72h; a lower Z score goes with more inhibition. The test is classed as functional, Erythrocyte. To be noted: timepoint 72 hour.
By % Inhibition is commonly meant the drop in the measured response relative to a control, in per cent. `CC(C)[C@@H](C(=O)N1CCC2(CC1)CN(C)CCN2C)c1ccc(Cl)cc1`: the “% Inhibition” value is on record as 1% and the Z score is given as -0.11.

For the compound `C[C@H](NC(=O)C(=O)N1CCCCC1)c1nncn1C`, the “% Inhibition” value stood at 20% and the Z score is -2.54.

For the compound `Cc1noc(C)c1CC(=O)NC1(c2cccs2)CCCC1`, the “% Inhibition” value turned out to be 6% and the Z score was -0.87.

Consider `COc1cccc([C@@H]2CNC(=O)c3nc(-c4ccc(C(=O)N(C)C)o4)[nH]c3C2)c1`, for which the “% Inhibition” value is given as -4% and the Z score stood at 0.72.

Turning to `COc1cccc(C2C(S(=O)(=O)N(C)C(C)C)CON2C)c1OC` (centres undefined), the “% Inhibition” value is listed as -22% and the Z score was 2.37.

`CC(C)CN1CCN(S(=O)(=O)C2CCC(C(F)(F)F)CC2)CC1=O` (centres undefined): the “% Inhibition” value is reported as -10% and the Z score is given as 1.32.

In the case of `CCOC(=O)C[C@H](NC(=O)c1ccc(NC(=O)C2CCC2)cc1)C(F)(F)F`, the “% Inhibition” value turned out to be 5% and the Z score is on record as -0.66.

`O=C(N[C@H]1CCc2n[nH]c(=O)cc2C1)c1cc(C2CC2)n[nH]1`: the “% Inhibition” value is listed as -20% and the Z score is listed as 3.37.

Take `Cc1cccc(-c2noc(-c3cccn4c(=O)n(CC(=O)Nc5cccc(C(F)(F)F)c5)nc34)n2)c1`: the “% Inhibition” value is given as -7% and the Z score was found to be 1.08.

For the compound `O=C(c1nccc2ccccc12)N1CC[C@@H](n2c(=O)[nH]c3cccnc32)C1`, the “% Inhibition” value is reported as -3% and the Z score turned out to be 0.62.

Turning to `CC(=Cc1ccc(C)cc1)C(=O)N1C[C@]2(CO)CCCC[C@]2(CO)C1`, the “% Inhibition” value is -2% and the Z score is given as 0.21.

For `C[C@@H](CNCc1ncc[nH]1)Oc1ccccc1Br`, the “% Inhibition” value is on record as -9% and the Z score was 0.92.

As for `CC1C(=O)N(CC(=O)Nc2cccc(N3CCCC3=O)c2)C(=O)C1C` (centres undefined), the “% Inhibition” value was found to be 2% and the Z score is listed as -0.33.

Take `CCN1CCCn2cc(S(=O)(=O)Nc3cccc(Cl)c3)cc2C1=O`: the “% Inhibition” value was -8% and the Z score was 0.92.

Consider `C[C@H]1CCN(Cc2ccccc2)CCN1C(=O)CCc1nnc[nH]1`, for which the “% Inhibition” value was -11% and the Z score was determined as 1.15.

For `CCCCCC1CCC(c2ccc(C(=O)Nc3cccnc3)cc2)CC1` (centres undefined), the “% Inhibition” value is listed as -4% and the Z score was found to be 0.5.

`CCCn1cc(CN2CCN(Cc3cc(C)cc(C)c3)C(=O)C2)c(C)n1`: the “% Inhibition” value is reported as -7% and the Z score was 0.88.

For `CCOc1ncccc1C(=O)NC1CCN(c2cc(=O)[nH]c(N)n2)CC1`, the “% Inhibition” value is reported as -9% and the Z score is 1.

With `CC12CCCC[C@@H]1CCC1C2CCC2(C)C1CC[C@@]2(O)CNCCO` (some centres undefined), the “% Inhibition” value is -4% and the Z score was 0.53.

As to `O=C(CN1CCO[C@H](c2ccc(Cl)cc2)C1)NCc1ccccn1`, the “% Inhibition” value is -1% and the Z score was 0.07.

Take `Cc1noc(C[C@H]2CCOC3(CCN(C(=O)CCc4ccccc4)CC3)C2)n1`: the “% Inhibition” value was -10% and the Z score came to 1.36.

As to `C[C@]1(CNC(=O)Cc2cn3c(n2)CCCC3)CN(CC(=O)NC2CC2)CCO1`, the “% Inhibition” value worked out at 15% and the Z score is -1.96.

`CCc1nc(-c2ccccc2)nc(N2CCN(C(=O)c3cccs3)CC2)c1Cc1ccc(F)cc1`: the “% Inhibition” value was -13% and the Z score worked out at 1.96.

For `CCC(=O)Nc1c(S(=O)(=O)c2ccc(C)cc2)c(C)c(C)n1Cc1ccco1`, the “% Inhibition” value is on record as -9% and the Z score was determined as 1.12.

In the case of `Cc1cc(S(=O)(=O)N(C)C[C@H](C)O)c(C)o1`, the “% Inhibition” value was -4% and the Z score is 0.53.

Take `CCc1nc(CN2C(=O)C3CC=CCC3C2=O)no1` (centres undefined): the “% Inhibition” value came out at 4% and the Z score was -0.54.

As for `CCOCCN1CCN(C(=O)Nc2ccncc2F)C[C@@H]1CC`, the “% Inhibition” value amounted to 3% and the Z score is -0.57.

Turning to `CCn1nc(C)c(C(=O)Nc2nnc3cc(C)ccn23)c1C`, the “% Inhibition” value is given as -20% and the Z score worked out at 2.16.

For the compound `Nc1cc(F)ccc1-c1nc(C2CCCCC2)n[nH]1`, the “% Inhibition” value is -1% and the Z score stood at 0.24.

Take `Cn1n[n+](CCCCC(Cl)(Cl)Cl)c2ccccc21`: the “% Inhibition” value was determined as 65% and the Z score is on record as -4.82.

Consider `C[C@@H](CC#N)NS(=O)(=O)Cc1ccc(F)cc1Br`, for which the “% Inhibition” value is listed as -9% and the Z score turned out to be 1.74.

As to `COc1cccc([C@@H]2CCCCN2C(=O)c2cc(C(C)C)on2)c1`, the “% Inhibition” value is recorded as -6% and the Z score is recorded as 0.79.

For the compound `CCOC1(C(=O)N[C@H](C)C(=O)N2Cc3ccccc3C2)CCCC1`, the “% Inhibition” value is on record as -1% and the Z score amounted to 0.2.

On to `Cc1ccc(C(=O)N2CCc3[nH]nc(C(=O)N4CCC(Cc5ccccc5)CC4)c3C2)cc1C`, for which the “% Inhibition” value was -4% and the Z score is 0.52.

For `O=C(NCCn1cccnc1=O)c1ccco1`, the “% Inhibition” value is 14% and the Z score was -1.84.

For the compound `O=C(CCc1ccc(S(=O)(=O)N2CCCC2)cc1)Oc1ccccc1`, the “% Inhibition” value was -7% and the Z score was 0.92.

Consider `O=C(c1cn(Cc2ccccc2)nc1OCc1ccccc1)N1CCOCC1`, for which the “% Inhibition” value is -15% and the Z score is on record as 1.72.

`CCn1nccc1[C@@H]1CCCN1C(=O)Nc1ccc(C)c(C)c1`: the “% Inhibition” value turned out to be 3% and the Z score is given as -0.53.

`CN(CC#N)Cc1cccc(C#N)c1F`: the “% Inhibition” value is on record as -19% and the Z score worked out at 2.36.

`Cc1nn(C(C)C)cc1CNc1nncn1C1CC1`: the “% Inhibition” value stood at 9% and the Z score is -1.64.

In the case of `Cc1cc2ncc(NC(=O)c3cc(C)on3)cn2n1`, the “% Inhibition” value is reported as -17% and the Z score is on record as 2.17.

Turning to `Cn1cnc(-c2noc(Cc3ccc(F)c(F)c3)n2)c1`, the “% Inhibition” value was -2% and the Z score was 0.4.

Source of the values: ChEMBL document CHEMBL4888484, “Replenishing the malaria drug discovery pipeline: Screening and hit evaluation of the MMV Hit Generation Library 1 (HGL1) against asexual blood stage Plasmodium falciparum ,using a nano luciferase reporter read-out” (2022).
